Values joined by “and” are separate entries in the source; they are usually repeats but may differ in a detail not shown here. Identical values can stand only once. Screen size: about 150,000 compounds; about 540 (0.36%) showed an effect of 50% or more. The list shows a part of the results.
System: Plasmodium falciparum
Test: Primary screen in NF54 nanoGlo assay, in single point, at 2uM, 72h; a lower Z score goes with more inhibition
Assay type: functional, Erythrocyte
Settings: timepoint 72 hour

**Q.** Which “% Inhibition” value does the source give for Cc1cc(N2CCC3(CCCN3Cc3nccn3C)CC2)c2ccccc2n1 here?
**A.** Its value is 0%.

**Q.** And the Z score?
**A.** The Z score was -0.02.

**Q.** How did the “% Inhibition” value turn out when O=C(CCOCC(F)(F)C(F)F)NCc1cccc(O)c1 was run?
**A.** Its value is 7%.

**Q.** What about the Z score of the same molecule?
**A.** The Z score was -0.82.

**Q.** How did the “% Inhibition” value turn out when Cc1c(C)n(CC(O)CNC(C)c2ccccc2)c2c(Cl)cccc12 (configuration not stated) was run?
**A.** The value was 59%.

**Q.** What about the Z score of the same molecule?
**A.** Its Z score is -7.71.

**Q.** For c1ccc(-c2cc(-c3ccccc3)c(Nc3nc(-c4cccs4)cs3)c(-c3ccccc3)c2)cc1, which “% Inhibition” value is on record?
**A.** The value was -2%.

**Q.** And the Z score?
**A.** The Z score was 0.35.

**Q.** Which “% Inhibition” value does the source give for Cc1nn(C)c(=O)c(C(=O)N2CC[C@H](C(=O)N3CCCC3)C2)c1C here?
**A.** Its value is -10%.

**Q.** And the Z score?
**A.** The Z score was 1.23.

**Q.** For CCc1nnc(CN2CCCc3c(F)c(F)cc(F)c32)o1, which “% Inhibition” value is on record?
**A.** Its value is 40%.

**Q.** And the Z score?
**A.** The Z score was -3.82.

**Q.** How did the “% Inhibition” value turn out when Cc1[nH]c2ccccc2c1C(=O)[C@H](C)N(C)CC(=O)Nc1cccc(F)c1 was run?
**A.** The value was -2%.

**Q.** And the Z score?
**A.** The Z score was 0.25.

**Q.** Which “% Inhibition” value does the source give for CC(C)(CN1CCOCC1)CN1C[C@H](O)[C@@H](F)C1 here?
**A.** Its value is -8%.

**Q.** What about the Z score of the same molecule?
**A.** The Z score was 1.47.

**Q.** With CO[C@@H]1C[C@@H](c2nc(C3CC3)n[nH]2)N(Cc2cccc3c2OCCO3)C1 as the molecule, how does the “% Inhibition” value read?
**A.** Its value is 4%.

**Q.** What about the Z score of the same molecule?
**A.** Its Z score is -0.6.

**Q.** Which results are given for Cc1cccc(NCc2ccc(N3N=C(c4ccccc4)C[C@H]3c3ccccc3)cc2)c1?
**A.** % Inhibition: -1%; Z score: 0.11

**Q.** What does the source list for Cc1cc(Cl)ccc1OCC(=O)NCC(C)(C)CNC(=O)COc1ccc(Cl)cc1C?
**A.** % Inhibition: -1%; Z score: 0.08

**Q.** With C[C@@H](CC(=O)Nc1cncnc1-n1cccn1)c1ccccc1 as the molecule, how does the “% Inhibition” value read?
**A.** The value was 38%.

**Q.** What about the Z score of the same molecule?
**A.** The Z score was -4.91.

**Q.** For O=C(CN1CCC[C@H](C(=O)Nc2nncs2)C1)Nc1ccnn1C1CCCC1, which “% Inhibition” value is on record?
**A.** Its value is 6%.

**Q.** And the Z score?
**A.** The Z score was -0.87.

**Q.** How did the “% Inhibition” value turn out when CCc1nnsc1C(=O)N1C[C@@H]2CC[C@H]1CN(C(=O)c1cnccn1)C2 was run?
**A.** Its value is -9%.

**Q.** And the Z score?
**A.** The Z score was 1.7.

**Q.** Which “% Inhibition” value does the source give for O=C(NCCNc1cnccn1)c1cc(Cl)c[nH]1 here?
**A.** Its value is -9%.

**Q.** What about the Z score of the same molecule?
**A.** The Z score was 1.27.

**Q.** How did the “% Inhibition” value turn out when COc1ccc(CC(=O)N2CCC[C@H](n3ccnn3)C2)c(C)c1 was run?
**A.** The value was -8%.

**Q.** What about the Z score of the same molecule?
**A.** The Z score was 1.14.

**Q.** How did the “% Inhibition” value turn out when COCc1ccc(C(=O)Nc2cc(Cl)ccc2NC2CC2)o1 was run?
**A.** Its value is -8%.

**Q.** And the Z score?
**A.** The Z score was 1.26.

**Q.** Cn1ccc(CN2CCn3ccnc3C2)cc1=O was tested. Which “% Inhibition” value did it give?
**A.** The value was -6%.

**Q.** What about the Z score of the same molecule?
**A.** The Z score was 1.15.

**Q.** For Cc1ccc(C(=O)NC2CCS(=O)(=O)CC2)cc1Cl, which “% Inhibition” value is on record?
**A.** The value was 17%.

**Q.** What about the Z score of the same molecule?
**A.** The Z score was -2.23.

**Q.** What does the source list for COc1ccc(C)cc1S(=O)(=O)N1CCCCC[C@H]1c1ccn(C)n1?
**A.** % Inhibition: 0%; Z score: -0.03

**Q.** CC(=O)N1CCC(C(=O)N[C@H]2CCN3C(=O)N(c4ccc(C)cc4)C(=O)[C@@H]3C2)CC1 was tested. Which “% Inhibition” value did it give?
**A.** The value was 7%.

**Q.** And the Z score?
**A.** Its Z score is -0.82.

**Q.** COc1ccc(CNC(=O)N2CCn3nnc(CCC(=O)NC4CC4)c3C2)cc1 was tested. Which “% Inhibition” value did it give?
**A.** Its value is -8%.

**Q.** What about the Z score of the same molecule?
**A.** Its Z score is 1.56.

**Q.** What does the source list for Cc1cc(C)cc(NC(=O)C2CCN(C(=O)NC3CCN(S(C)(=O)=O)CC3)CC2)c1?
**A.** % Inhibition: -10%; Z score: 1.43

**Q.** Which “% Inhibition” value does the source give for CCOCCN1C[C@]23C=C[C@H](O2)C(C(=O)N2CCc4n[nH]cc4C2)C3C1=O (some centres not stated) here?
**A.** Its value is -13%.

**Q.** And the Z score?
**A.** The Z score was 2.39.

**Q.** What does the source list for Cn1cc(-c2n[nH]cc2C(=O)N2CCC[C@H](N3CCOCC3)CC2)cn1?
**A.** % Inhibition: -4%; Z score: 0.72

**Q.** Which “% Inhibition” value does the source give for NC1(C(=O)N2CCOC(C3CCCO3)C2)CCCCC1 (configuration not stated) here?
**A.** The value was -13%.

**Q.** What about the Z score of the same molecule?
**A.** The Z score was 1.58.

**Q.** Which results are given for CCCNC(=O)Cn1ncc2c(N3CCCCCC3)ncnc21?
**A.** % Inhibition: -16%; Z score: 1.83

**Q.** How did the “% Inhibition” value turn out when CCc1noc([C@H]2CCC(=O)N(Cc3ccccc3F)C2)n1 was run?
**A.** Its value is -10%.

**Q.** And the Z score?
**A.** The Z score was 1.92.

**Q.** What does the source list for CCCC(C)(C)N(Cc1cccs1)C(=O)C1CCOCC1?
**A.** % Inhibition: 2%; Z score: -0.28

**Q.** For CC(C)N1C[C@@H](C(=O)N2CCCc3cc(S(C)(=O)=O)ccc32)CC1=O, which “% Inhibition” value is on record?
**A.** Its value is -10%.

**Q.** And the Z score?
**A.** The Z score was 1.84.

**Q.** How did the “% Inhibition” value turn out when Cn1cc(CN2CCC(CC3CC3)(c3noc(C4CCOCC4)n3)CC2)c2ccccc21 was run?
**A.** Its value is -9%.

**Q.** And the Z score?
**A.** The Z score was 1.23.

**Q.** Which “% Inhibition” value does the source give for COc1ccc(-c2nc3c(s2)CN(S(=O)(=O)c2ccc(C(C)=O)cc2)CC3)cc1 here?
**A.** Its value is -12%.

**Q.** And the Z score?
**A.** Its Z score is 1.99.

**Q.** With CCOC(=O)[C@H](C)c1nc(-c2cccc(S(C)(=O)=O)c2)cs1 as the molecule, how does the “% Inhibition” value read?
**A.** The value was 10%.

**Q.** And the Z score?
**A.** The Z score was -1.97.

**Q.** For CCC(=O)N(CC(=O)Nc1nc(-c2ccccc2)cn1-c1ccc(C(C)C)cc1)C[C@H]1CCCO1, which “% Inhibition” value is on record?
**A.** The value was -13%.

**Q.** And the Z score?
**A.** Its Z score is 2.08.

**Q.** Cc1ccc(CNC(=O)CC2=Nc3ccccc3S(=O)(=O)N2)cc1 was tested. Which “% Inhibition” value did it give?
**A.** The value was -2%.

**Q.** And the Z score?
**A.** The Z score was 0.38.

**Q.** Which results are given for Cn1ccc(NC(=O)CN2CCO[C@H]3CCCC[C@@H]32)n1?
**A.** % Inhibition: 1%; Z score: -0.26

**Q.** With COc1ccc(C(=O)N2CCN(c3cc(N4CCOCC4)nc(C)n3)CC2)cc1 as the molecule, how does the “% Inhibition” value read?
**A.** The value was 40%.

**Q.** What about the Z score of the same molecule?
**A.** The Z score was -5.32.

**Q.** What does the source list for CCOC(=O)N1CCC(NC(=O)c2ccccn2)CC1?
**A.** % Inhibition: -16%; Z score: 2.15

**Q.** How did the “% Inhibition” value turn out when COCCN1CC(=O)N[C@H]2CN(Cc3cc(C(C)(C)C)[nH]n3)C[C@@H]2OCc2cccc(c2)Oc2cc(ccc2OC)CCC1=O was run?
**A.** The value was 12%.

**Q.** And the Z score?
**A.** The Z score was -2.25.

**Q.** Which results are given for C=CCCC(O)CN1CCCC(c2c[nH]c3ncccc23)C1 (configuration not stated)?
**A.** % Inhibition: -5%; Z score: 0.67

**Q.** How did the “% Inhibition” value turn out when CC1CCN(c2nnc(C(=O)NCc3cccc(F)c3)c3ccccc23)CC1 was run?
**A.** Its value is 0%.

**Q.** And the Z score?
**A.** Its Z score is 0.01.

**Q.** How did the “% Inhibition” value (2 µM) turn out when C=CCNc1nc([C@@H]2COc3ccccc3O2)cs1 was run?
**A.** Its value is -8% and -5%.

**Q.** And the Z score (2 µM)?
**A.** The Z score was 0.72 and 0.67.

**Q.** With O=C(NC[C@@H](CO)Cc1ccccn1)Nc1nc2c(s1)CCCC2 as the molecule, how does the “% Inhibition” value read?
**A.** Its value is 7%.

**Q.** What about the Z score of the same molecule?
**A.** Its Z score is -0.87.

**Q.** For COc1cccc(NC(=O)C2CCN(S(=O)(=O)c3ccc4c(c3)CCCN4C(=O)C3CCC3)CC2)c1, which “% Inhibition” value is on record?
**A.** The value was -11%.

**Q.** What about the Z score of the same molecule?
**A.** The Z score was 2.

**Q.** Cc1cccc(CC(=O)N2CCC3(CC2)C[C@@H](N(C2CC2)S(C)(=O)=O)CCO3)c1 was tested. Which “% Inhibition” value did it give?
**A.** Its value is 0%.

**Q.** And the Z score?
**A.** The Z score was 0.04.

**Q.** With COc1ccccc1C(=O)N1CCC2(CC1)C[C@@H](N(C)Cc1ccccc1)CCO2 as the molecule, how does the “% Inhibition” value read?
**A.** Its value is -4%.

**Q.** And the Z score?
**A.** The Z score was 0.72.

**Q.** What does the source list for O=S(=O)(c1ccc2ccccc2c1)n1cncn1?
**A.** % Inhibition: -47%; Z score: 5.52

**Q.** With CC1CCN(C(=O)c2nnn3c2CO[C@H](c2ccccc2)C3)CC1 as the molecule, how does the “% Inhibition” value read?
**A.** The value was -6%.

**Q.** What about the Z score of the same molecule?
**A.** The Z score was 0.89.

**Q.** What does the source list for Cc1ccnc(NC(=O)N[C@@H](Cc2ccccc2)C2CC2)c1?
**A.** % Inhibition: 7%; Z score: -0.83

**Q.** Cc1nc(CN)cc(N(C)[C@H](C)c2cccc3ccccc23)n1 was tested. Which “% Inhibition” value did it give?
**A.** The value was 4%.

**Q.** And the Z score?
**A.** The Z score was -0.62.

**Q.** Which results are given for Cc1nc2ccc(Cl)cc2c(-c2ccccc2)c1C1=NN(S(C)(=O)=O)[C@H](c2ccc(Cl)cc2)C1?
**A.** % Inhibition: 5%; Z score: -0.6

Reference: ChEMBL document CHEMBL4888484, “Replenishing the malaria drug discovery pipeline: Screening and hit evaluation of the MMV Hit Generation Library 1 (HGL1) against asexual blood stage Plasmodium falciparum ,using a nano luciferase reporter read-out” (2022)
